Here are results for 62 molecules from the supplement of paper PMC9446081.

Structures are written as SMILES. The whole screen tested about 39,000 compounds, of which about 220 (0.56%) showed activity. The list shows a part of the results.
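Also: static incubation at 37 °C against the wild-type strain, values averaged over two biological replicates.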

For this assay, the system named is Escherichia coli K-12 BW25113. In words: relative growth (OD600 normalised to plate interquartile mean) (fraction); higher = less growth inhibition, active = 0.2 or less. Particulars: 50 µM; LB; incubation time: overnight (16-24 h).
As to `COCC(=O)Nc1ccc2c(c1)C(=O)N(C)C[C@@H](OC)[C@@H](C)CN(C(=O)Cc1cccnc1)[C@@H](C)CO2`, the relative growth was inactive: 0.997.
For the molecule `C[C@@H]1CN([C@H](C)CO)C(=O)c2cc(NC(=O)Nc3cccc4ccccc34)ccc2O[C@@H](C)CCCCO[C@H]1CN(C)S(=O)(=O)c1cn(C)cn1`, the relative growth was inactive: 1.
Take `COc1ccc(S(=O)(=O)N(C)C[C@H]2Oc3c(NC(=O)Nc4cccc5ccccc45)cccc3C(=O)N([C@H](C)CO)C[C@@H]2C)cc1`: the relative growth is inactive: 1.04.
For `C[C@H](CO)N1C[C@H](C)[C@@H](CN(C)Cc2ccc(C(F)(F)F)cc2)Oc2ccc(NC(=O)Cc3ccccc3)cc2C1=O`, the relative growth was inactive: 1.07.
Next, `NS(=O)(=O)c1ccc(O)c([N+](=O)[O-])c1`: inactive: 0.992; `C[C@@H]1CN([C@@H](C)CO)C(=O)Cc2cc(NC(=O)CCN3CCOCC3)ccc2O[C@H]1CN(C)Cc1ccc(C(=O)Nc2ccccc2N)cc1`: inactive: 0.974; `CNC[C@H]1OCCCC[C@H](C)Oc2ccc(NC(=O)CCCN(C)C)cc2C(=O)N([C@@H](C)CO)C[C@@H]1C`: inactive: 0.985.
Next, `CCC(c1ccc(O)cc1)C(CC)c1ccc(O)cc1` (configuration not stated): inactive: 0.716; `O=C(CN1C(=O)CSC1=O)N1CCCC1`: inactive: 0.907.
Next, `Cc1noc(C)c1S(=O)(=O)N(C)C[C@@H]1Oc2c(NC(=O)C3CCCCC3)cccc2C(=O)N([C@@H](C)CO)C[C@@H]1C`: inactive: 0.993; `C[C@H](CO)N1C[C@H](C)[C@@H](CN(C)C(=O)Nc2cccc3ccccc23)OCCCC[C@H](C)Oc2ccc(NC(=O)Nc3ccc4c(c3)OCO4)cc2C1=O`: inactive: 1.03.
Turning to `CC(C)C(=O)NCc1nnnn1-c1ccccc1`, the relative growth was inactive: 0.992.
Next, `COC(=O)c1ccccc1N(C)S(C)(=O)=O`: inactive: 1.01.
Next, `Cc1noc(C)c1NC(=O)Nc1ccc2c(c1)CC(=O)N([C@H](C)CO)C[C@@H](C)[C@H](CN(C)Cc1ccc(-c3ccccc3)cc1)O2`: inactive: 1.04.
Next, `C[C@@H]1CN([C@@H](C)CO)C(=O)c2cc(NC(=O)NC3CCCCC3)ccc2O[C@@H](C)CCCCO[C@H]1CN(C)CC1CC1`: inactive: 1.
For the molecule `CC(C)=CCC/C(C)=C/CO`, the relative growth is inactive: 0.962.
Next, `C[C@H](CO)N1C[C@H](C)[C@@H](CN(C)Cc2ccncc2)Oc2c(NS(=O)(=O)c3ccccc3)cccc2C1=O`: inactive: 1; `CCOC(=O)N[C@H]1CCS(=O)(=O)C1`: inactive: 0.986; `O=C(C[C@H]1C=C[C@@H](NS(=O)(=O)c2ccc(F)cc2)[C@@H](CO)O1)N1CCC(Cc2ccccc2)CC1`: inactive: 1.
Next, `CCNC(=O)C[C@@H]1CC[C@H](NC(=O)C2CCOCC2)[C@@H](CO)O1`: inactive: 1.01; `C[C@H](CO)N1C[C@H](C)[C@@H](CN(C)S(=O)(=O)c2ccc(F)cc2)Oc2c(NS(=O)(=O)c3cn(C)cn3)cccc2C1=O`: inactive: 0.99.
`COc1ccc(S(=O)(=O)Nc2ccc3c(c2)C(=O)N([C@H](C)CO)C[C@H](C)[C@@H](CN(C)Cc2ccccc2)OCCCC[C@H](C)O3)cc1`: the relative growth was inactive: 0.962.
For the molecule `C[C@@H]1CN([C@H](C)CO)C(=O)c2cccc(NS(=O)(=O)c3cn(C)cn3)c2O[C@@H]1CN(C)S(=O)(=O)c1ccccc1`, the relative growth is inactive: 1.01.
With `C[C@@H]1CCCCO[C@H](CN(C)C(=O)c2ccncc2)[C@@H](C)CN([C@@H](C)CO)C(=O)c2cc(NC(=O)C3CCCCC3)ccc2O1`, the relative growth is inactive: 0.967.
Next, `C[C@@H](O)C#Cc1ccc2c(c1)O[C@H](CN(C)C(=O)c1ccncc1)[C@@H](C)CN([C@@H](C)CO)S2(=O)=O`: inactive: 0.987; `CCS(=O)(=O)Nc1ccc2c(c1)C(=O)N(C)C[C@@H](OC)[C@@H](C)CN(CCC(F)(F)F)[C@H](C)CO2`: inactive: 0.983; `C[C@H](CO)N1C[C@H](C)[C@H](CN(C)C(=O)Nc2ccccc2)OCCCC[C@H](C)Oc2ccc(NS(=O)(=O)c3ccc(F)cc3)cc2C1=O`: inactive: 1.
Regarding `Cc1ccc(S(=O)(=O)Nc2ccc3c(c2)CC(=O)N([C@H](C)CO)C[C@@H](C)[C@H](CN(C)S(C)(=O)=O)O3)cc1`, the relative growth was inactive: 1.02.
Next, `C[C@@H]1CN([C@H](C)CO)C(=O)c2cccc(NS(C)(=O)=O)c2O[C@@H]1CN(C)S(=O)(=O)c1ccc(F)cc1`: inactive: 0.967; `O=C(N[C@H]1CC[C@@H](CC(=O)N2CCOCC2)O[C@H]1CO)c1ccc2c(c1)OCO2`: inactive: 1.01.
Turning to `Cc1noc(C)c1NC(=O)Nc1ccc2c(c1)C(=O)N([C@H](C)CO)C[C@H](C)[C@H](CN(C)C(=O)c1ccccc1)OCCCC[C@H](C)O2`, the relative growth is inactive: 1.02.
Next, `CC(C)CC#Cc1cnc2c(c1)C(=O)N([C@@H](C)CO)C[C@@H](C)[C@@H](CN(C)C(=O)c1ccc3c(c1)OCO3)O2`: inactive: 0.974; `C[C@@H]1CCCCO[C@H](CN(C)C(=O)Nc2ccc(F)cc2)[C@@H](C)CN([C@H](C)CO)C(=O)c2cc(NC(=O)Nc3ccc4c(c3)OCO4)ccc2O1`: inactive: 0.991.
Turning to `C[C@@H]1CN([C@@H](C)CO)C(=O)c2cc(NS(=O)(=O)c3ccc(F)cc3)ccc2O[C@@H](C)CCCCO[C@@H]1CN(C)C(=O)Nc1cccc2ccccc12`, the relative growth is inactive: 1.03.
`C[C@H](CO)N1C[C@H](C)[C@H](CN(C)Cc2ccc(Oc3ccccc3)cc2)Oc2c(NS(=O)(=O)c3cccs3)cccc2C1=O`: the relative growth is inactive: 0.941.
Next, `CC(C)NC(=O)N(C)C[C@@H]1Oc2ccc(NS(=O)(=O)c3cn(C)cn3)cc2CC(=O)N([C@@H](C)CO)C[C@@H]1C`: inactive: 0.982.
Next, `COc1ccc(S(=O)(=O)N(C)C[C@@H]2Oc3cc(C4=CCCC4)ccc3S(=O)(=O)N([C@H](C)CO)C[C@@H]2C)cc1`: inactive: 1.01; `Cc1cccc(S(=O)(=O)N2C[C@@H](O)COC[C@H]3O[C@@H](CC(=O)NCc4ccncn4)CC[C@@H]32)c1`: inactive: 1.02; `O=C(O)CCCCCCC(=O)Nc1ccc([C@H]2O[C@@H](CSc3nc(-c4ccccc4)c(-c4ccccc4)o3)C[C@H](c3ccc([N+](=O)[O-])cc3)O2)cc1`: inactive: 1.03.
As to `Cc1noc(C)c1NC(=O)N[C@H]1CC[C@@H](CC(=O)N2CCN(C)CC2)O[C@@H]1CO`, the relative growth was inactive: 0.991.
As to `CNC[C@H]1Oc2ccc(NC(=O)Cn3cnnn3)cc2CC(=O)N([C@@H](C)CO)C[C@H]1C`, the relative growth was inactive: 1.
With `N[C@H](C(=O)O)c1ccc(C(=O)O)c(O)c1`, the relative growth is inactive: 0.979.
For the molecule `CC(=O)OC1CC2C(C)(C)C(=O)C3OC3C2(C)C2CCC3(C)C(c4ccoc4)OC(=O)C4OC43C12C` (configuration not stated), the relative growth is inactive: 1.07.
Next, `C[C@@H]1CCCCO[C@@H](CN(C)Cc2ccc(Cl)c(Cl)c2)[C@@H](C)CN([C@H](C)CO)C(=O)c2cc(NS(C)(=O)=O)ccc2O1`: inactive: 0.971; `C[C@H]1CN([C@@H](C)CO)C(=O)c2cc(NC(=O)CCN3CCOCC3)ccc2O[C@H]1CN(C)CC1CCCCC1`: inactive: 0.967.
Next, `Cn1ccnc1C(=O)N[C@@H]1CN(C(N)=O)[C@H]2CCCO[C@@H]12`: inactive: 1.02.
Next, `O=C(NCCO)c1nc(NCCO)c2ccccc2n1`: inactive: 0.959; `C[C@H](NC(=O)C[C@@H]1C[C@@H]2c3cc(NC(=O)Nc4ccc(C(F)(F)F)cc4)ccc3O[C@@H]2[C@H](CO)O1)c1ccccc1`: inactive: 0.994.
Turning to `C[C@@H](O)c1nnc(N)[nH]1`, the relative growth was inactive: 1.02.
For `C[C@H]1CCCCO[C@@H](CN(C)S(=O)(=O)c2ccccc2)[C@@H](C)CN([C@@H](C)CO)C(=O)c2cc(NS(=O)(=O)c3cn(C)cn3)ccc2O1`, the relative growth is inactive: 0.96.
On to `CCOC[C@@H](O)CS(=O)(=O)c1ccccn1`, for which the relative growth was inactive: 1.03.
Next, `C[C@@H]1CCCCO[C@H](CN(C)C(=O)Nc2ccc(F)cc2)[C@@H](C)CN([C@H](C)CO)C(=O)c2cc(NC(=O)NC3CCCCC3)ccc2O1`: inactive: 1; `C[C@H](CO)N1C[C@H](C)[C@@H](CN(C)S(=O)(=O)c2cn(C)cn2)Oc2c(NC(=O)CCC(F)(F)F)cccc2C1=O`: inactive: 1.01; `C[C@@H]1CN([C@H](C)CO)S(=O)(=O)c2ccc(C#Cc3ccccc3)cc2O[C@H]1CN(C)C(=O)Cc1ccccn1`: inactive: 1.01.
With `Cc1noc(C)c1NC(=O)Nc1ccc2c(c1)C(=O)N([C@H](C)CO)C[C@H](C)[C@@H](CN(C)Cc1ccc(Cl)c(Cl)c1)O2`, the relative growth is inactive: 0.989.
For the molecule `COc1ccc(S(=O)(=O)Nc2cccc3c2O[C@@H](CN(C)C(=O)NC(C)C)[C@H](C)CN([C@H](C)CO)C3=O)cc1`, the relative growth is inactive: 0.978.
In the case of `COc1ccccc1CNC(=O)C[C@@H]1C[C@@H]2c3cc(NS(=O)(=O)c4ccc(F)cc4)ccc3O[C@@H]2[C@@H](CO)O1`, the relative growth is inactive: 1.
For the molecule `CN1CCN([C@H](CNC(=O)C(=O)NCCN2CCOCC2)c2ccc(N(C)C)cc2)CC1`, the relative growth is inactive: 0.971.
Next, `C[C@@H]1CCCCO[C@@H](CN(C)Cc2ccncc2)[C@@H](C)CN([C@@H](C)CO)C(=O)c2cc(NC(=O)Nc3ccccc3)ccc2O1`: inactive: 1.02; `Cc1ccc(OC(=O)N(C)C[C@@H]2OCc3ccccc3-c3ccccc3C(=O)N([C@H](C)CO)C[C@H]2C)cc1`: inactive: 1.02; `C=CCC[C@@H](Cc1ccc(F)cc1)C(=O)O[C@@H](CNC(=O)[C@@H](CC=C)CC(=O)N(CCO)Cc1ccccc1)c1ccccc1`: inactive: 1.12.
Next, `CO[C@H]1CN(C)C(=O)c2cc(NC(=O)C3CC3)ccc2OC[C@H](C)N(C(=O)Cc2ccccn2)C[C@@H]1C`: inactive: 0.977.
